# Measurements from PubChem BioAssay AID1814 (Broad Institute, 2009).
# The whole screen tested about 300,000 compounds, of which about 22,000 (7.3%) were called active. This list was built around the results that the source calls inconclusive (neither active nor inactive); the mix of calls is not that of the screen. Rule as the data show it: active = activity score below about -60%; inconclusive = mostly about -28% to -61%; inactive = positive scores.
# Test: Activators via SNCA 5'UTR binding, MLPCN (AID 1814)
# Settings: alpha-synuclein 5'UTR reporter, activators screen; hits give low values; tested at 7.5 µM
row,SMILES,activity score
1,CC(c1ccccc1)c1nnc(NC(=O)Nc2ccccc2F)s1 (centres undefined),active: -95.2%
2,CC(=O)Nc1nc2ccccc2n1CCOc1ccccc1Cl,inactive: 73.3%
3,C/C(=N\NC(=O)c1ccc(N/N=C(\C)c2ccc(O)cc2)cc1)c1ccc(O)cc1,inconclusive: -58.7%
4,CC(C)Oc1ccc(C(=O)NC(=S)Nc2ccc(CN3CCOCC3)cc2)cc1,inconclusive: -46.9%
5,COc1ccc2c(-c3cc4ccc(OCc5ccc(F)cc5)cc4oc3=O)cc(=O)oc2c1,inconclusive: -44.4%
6,CC1CN(c2nnc(NC(=O)c3ccccc3)s2)CC(C)O1 (centres undefined),inconclusive: -50.8%
7,Cc1ccc(Nc2ncnc(N)n2)cc1,inconclusive: -49.4%
8,COc1cc(C(=O)NC(=S)NNC(=O)c2cnccn2)cc(OC)c1OC,inactive: 78.9%
9,Cc1nonc1C(=O)N/N=C/c1cc2c(cc1Br)OCO2,inconclusive: -36.8%
10,O=C(N=Nc1c(O)[nH]c2ccc(Br)cc12)c1cc(-c2cccs2)nc2ccccc12,inactive: 81.4%
11,COc1ccccc1OCCSc1nc2ccc([N+](=O)[O-])cc2s1,inconclusive: -49.3%
12,Cc1ccc(NC(=O)Nc2nc(-c3ccc(C)s3)cs2)cc1,inconclusive: -57.5%
13,CCOC(=O)N/N=C\c1ccc(OC(=O)c2ccc3c(c2)OCO3)cc1,inconclusive: -56.2%
14,Cc1ccc(NC(=O)CSc2nnc(-c3ccccc3Br)o2)cc1C,inconclusive: -60.7%
15,CC(C)(C)OC(=O)N1CCN(c2ccc(NC(=O)Cn3nnc(-c4ccccc4)n3)cc2)CC1,inconclusive: -51.8%
16,COc1ccc(NC(=S)NC(=O)Cc2ccccc2)cc1,inconclusive: -46.6%
17,COc1ccc2nc(N3CCC(O)CC3)c(C#N)cc2c1,inconclusive: -55.6%
18,Cc1ccc(OCC(=O)Nc2cccnc2Cl)cc1C,inconclusive: -56.7%
19,CC1(C)C2CCC1(CS(=O)(=O)Nc1ccc(S(=O)(=O)N3CCCC3)cc1)C(=O)C2 (centres undefined),inconclusive: -36.6%
20,Cc1ccc(-c2csc(NC(=O)c3cccc(S(=O)(=O)N4CCN(C)CC4)c3)n2)cc1,active: -65.8%

row,SMILES,activity score
1,Cc1cc(C)nc(Nc2n[nH]c(-c3ccccc3Cl)n2)n1,active: -141%
2,COC(=O)c1ccc(Nc2cc(C)nc(-c3ccccc3O)n2)cc1,inconclusive: -46.8%
3,NS(=O)(=O)c1ccc(CCNC(=O)NC2(C(F)(F)F)Oc3ccccc3O2)cc1,inconclusive: -53%
4,COc1ccccc1N1CCN(C(=O)c2cc(=O)c3cc(C)cc(C)c3o2)CC1,inactive: 78.3%
5,O=c1oc2ccccc2nc1/C=C(O)/C=C/c1ccc(F)cc1,active: -87.6%
6,Cn1c(=O)n(C)c2cc(NC(=O)CCl)ccc21,active: -180%
7,Cc1cccn2c(=O)c3cc(C(=O)NCCN4CCOCC4)c(=N)n(Cc4cccnc4)c3nc12,inactive: 97%
8,COc1ccc2oc(C(=O)c3ccccc3)c(NC(=O)CN3CCN(C)CC3)c2c1,inconclusive: -55.9%
9,Cc1nc(C2COc3ccccc3O2)sc1C(=O)O (centres undefined),inconclusive: -55.7%
10,Cc1ccc(C(=O)NCCc2ccccc2)cc1,inactive: 71.1%
11,O=C(NC(=S)Nc1nc(-c2ccccc2)cs1)c1cccnc1,inconclusive: -33.5%
12,C#CC[N+](C)(C)CCCCCCCCC,inactive: 65%
13,CCOc1ccc(-c2cc(CCCC(=O)NCc3ccco3)no2)cc1,inactive: 72.8%
14,COC(=O)c1ccccc1SCC(=O)Nc1ccc(N2CCOCC2)cc1,inconclusive: -57.6%
15,CN(c1ccc(C(=O)NCCC2=CCCCC2)cc1)S(C)(=O)=O,inconclusive: -59%
16,COc1ccnc(N=CNOCc2ccc(F)cc2Cl)c1C#N,inconclusive: -56%
17,O=C(CSc1ncccn1)NC(=O)Nc1ccc2c(c1)OCCO2,inconclusive: -58.3%
18,Cc1ccc(NC(=S)Nc2cc(C(=O)O)ccc2N2CC3CC(C2)c2cccc(=O)n2C3)cc1C (centres undefined),inconclusive: -60.7%
19,Cn1/c(=N/NC(=O)c2cccc(OC(F)F)c2)sc2ccccc21,inconclusive: -50.9%
20,Cc1ccc(O)c(N=Cc2ccc(C)s2)c1,inconclusive: -26.7%

row,SMILES,activity score
1,O=C(Nc1ccccc1N1CCCC1)c1ccc(Br)o1,inconclusive: -61.1%
2,Clc1ccccc1Cn1nnc2c(N3CCOCC3)nc(C3CC3)nc21,inactive: 54.6%
3,CCC(O)CNC(=O)NC(=C(Cl)Cl)c1ccc(C)c(F)c1 (centres undefined),inconclusive: -51.5%
4,Cc1cc(N)n(-c2cc(C)c3ccccc3n2)n1,active: -118%
5,COc1cc(/C=C(/C#N)C(=O)Nc2ccc(C)cc2)ccc1Oc1nc(Cl)ncc1F,inconclusive: -49.2%
6,CCc1ccc(NC(=O)c2cccnc2)cc1,active: -78.8%
7,Cc1cc(C)c(/C([O-])=C(/C(=S)Nc2ccc(SC(F)F)cc2)[n+]2ccccc2)cc1C,inconclusive: -49.8%
8,COc1ccc(C(=O)/C=C2\Sc3ccccc3N2C)cc1,active: -179%
9,COc1cccc(Oc2ccc(C(F)(F)F)cc2N)c1,active: -104%
10,CCC(=O)NC(c1cccs1)c1ccc2cccnc2c1O (centres undefined),inactive: 79.6%
11,COc1ccc(NC(=O)Nc2cccs2)cn1,inconclusive: -60.6%
12,Cc1cccc(N/N=C(\C(N)=O)C2=NC(C)(C)Cc3ccccc32)c1,inactive: 59.1%
13,O=C(NCCCN1CCCC1=O)Nc1ccc(Cl)cc1,inconclusive: -61.5%
14,CC(NC(=O)c1ccc([N+](=O)[O-])o1)C12CC3CC(CC(C3)C1)C2 (centres undefined),active: -168%
15,CCOC(=O)c1[nH]c2ccccc2c1NC(=S)Nc1ccccc1C,inconclusive: -53.2%
16,COc1ccccc1C(NC(C)=O)c1cc(Cl)c2cccnc2c1O (centres undefined),inactive: 67.5%
17,COc1cc2c(C(=O)OCCN(C)C)c(CSc3ccccc3)n(C)c2cc1Br,inconclusive: -50.6%
18,O=C(/C=C/c1ccc(-c2ccccc2[N+](=O)[O-])o1)c1ccc(Br)cc1,inconclusive: -61%
19,Nc1ccc(C(=O)OCc2csc(-c3ccccc3)n2)cc1[N+](=O)[O-],inconclusive: -28.7%
